Results: PMC12032945, “Estrogenic activity of E2-conjugated GLP-1 is mediated by intracellular endolysosomal acidification and estrone metabolism” (Molecular Metabolism, 2025)

Tested on: ERα, ERβ, ERα/ERβ
Details: saturating doses (1 μM); 24 h

C[C@]12CC[C@@H]3c4ccc(O)cc4CC[C@H]3[C@@H]1CC[C@@H]2O [E2, 17β-estradiol]
bias for ER subtype (ERα, ERβ, both): do not show bias in engaging specific receptor subtypes at saturating doses
